Experimental data published in the CheMixHub viscosity set.
The source gives many values for each of these; only a part stands here.

Assay: xn = mol fraction of the nth substance listed

OC[C@H]1O[C@@](CO)(O[C@H]2O[C@H](CO)[C@@H](O)[C@H](O)[C@H]2O)[C@@H](O)[C@@H]1O + O
Conditions	viscosity [mPa·s]
293.15 K, 100 kPa, x1 = 0.0005	1.03
293.15 K, 100 kPa, x1 = 0.013	1.95
293.15 K, 100 kPa, x1 = 0.034	6.17
293.15 K, 100 kPa, x1 = 0.05	15.54
293.15 K, 100 kPa, x1 = 0.073	58.08
293.15 K, 100 kPa, x1 = 0.09552	210
293.15 K, 101 kPa, x1 = 0.003	1.15
293.15 K, 101 kPa, x1 = 0.0058	1.309
293.15 K, 101.3 kPa, x1 = 0.002	1.095
298.15 K, 100 kPa, x1 = 0.09854	180
298.15 K, 101 kPa, x1 = 0.0009	0.93
298.15 K, 101 kPa, x1 = 0.001798	0.974
298.15 K, 101 kPa, x1 = 0.004484	1.114
298.15 K, 101 kPa, x1 = 0.005375	1.166
298.15 K, 101 kPa, x1 = 0.0058	1.161
298.15 K, 101 kPa, x1 = 0.008924	1.379
298.15 K, 101 kPa, x1 = 0.01799	2.182
298.15 K, 101 kPa, x1 = 0.02617	3.38
298.15 K, 101 kPa, x1 = 0.03453	5.37
298.15 K, 101 kPa, x1 = 0.04325	8.536
298.15 K, 101 kPa, x1 = 0.04968	12.23
298.15 K, 101 kPa, x1 = 0.06024	21.59
298.15 K, 101.3 kPa, x1 = 0.002	0.971
298.15 K, 101.32 kPa, x1 = 0.013	1.705
298.15 K, 101.32 kPa, x1 = 0.022	2.745
298.15 K, 101.32 kPa, x1 = 0.034	5.187
298.15 K, 101.33 kPa, x1 = 0.007154	1.271
298.15 K, 101.33 kPa, x1 = 0.01069	1.523
298.15 K, 101.33 kPa, x1 = 0.01421	1.826
298.15 K, 101.33 kPa, x1 = 0.0177	2.196
303.15 K, 100 kPa, x1 = 0.0224	2.397
303.15 K, 100 kPa, x1 = 0.102	160
303.15 K, 101 kPa, x1 = 0.003	0.9135
303.15 K, 101 kPa, x1 = 0.0058	1.037
303.15 K, 101.3 kPa, x1 = 0.002	0.87
308.15 K, 100 kPa, x1 = 0.02	2.075
308.15 K, 100 kPa, x1 = 0.0224	2.096
308.15 K, 100 kPa, x1 = 0.1058	140
308.15 K, 101 kPa, x1 = 0.003	0.8236
308.15 K, 101 kPa, x1 = 0.0058	0.9316
308.15 K, 101.3 kPa, x1 = 0.002	0.783
313.15 K, 100 kPa, x1 = 0.05	6.97
313.15 K, 100 kPa, x1 = 0.1102	120
313.15 K, 101 kPa, x1 = 0.003	0.749
313.15 K, 101 kPa, x1 = 0.0058	0.8435
313.15 K, 101.3 kPa, x1 = 0.002	0.711
318.15 K, 100 kPa, x1 = 0.115	110
318.15 K, 101 kPa, x1 = 0.003	0.6852
318.15 K, 101 kPa, x1 = 0.0058	0.7705
318.15 K, 101.3 kPa, x1 = 0.002	0.649
323.15 K, 100 kPa, x1 = 0.1204	100

[Cl-].[K+] + O
Conditions	viscosity [mPa·s]
298.15 K, 101.33 kPa, x1 = 0.07931	1
310.15 K, 101 kPa, x1 = 0.000189	0.6944
310.15 K, 101 kPa, x1 = 0.000938	0.6985
310.15 K, 101 kPa, x1 = 0.001929	0.7025
310.15 K, 101 kPa, x1 = 0.002695	0.7062
310.15 K, 101 kPa, x1 = 0.003679	0.7108
310.15 K, 101 kPa, x1 = 0.005197	0.7179
310.15 K, 101 kPa, x1 = 0.005988	0.7215
313.15 K, 101 kPa, x1 = 0.0468	0.7029
313.15 K, 101 kPa, x1 = 0.05806	0.721
313.15 K, 101 kPa, x1 = 0.06612	0.7358
313.15 K, 101 kPa, x1 = 0.07583	0.755
323.15 K, 101 kPa, x1 = 0.02711	0.5781
323.15 K, 101 kPa, x1 = 0.0468	0.6057
323.15 K, 101 kPa, x1 = 0.05806	0.6243
323.15 K, 101 kPa, x1 = 0.06612	0.6388
323.15 K, 101 kPa, x1 = 0.07583	0.6576
